This note sets out measurements from PMC4336329 (PLoS ONE, 2015).

Among all 310,000 compounds or so, about 14,000 (4.5%) showed an effect of 50% or more. The effect is printed as a negative number. This is one part of the list.
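Note: peak tail current of the secondary pulse compared with the same well before compound.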

Chain of human ether-à-go-go-related gene (hERG) potassium channel (Q12809 whole entry, looked up): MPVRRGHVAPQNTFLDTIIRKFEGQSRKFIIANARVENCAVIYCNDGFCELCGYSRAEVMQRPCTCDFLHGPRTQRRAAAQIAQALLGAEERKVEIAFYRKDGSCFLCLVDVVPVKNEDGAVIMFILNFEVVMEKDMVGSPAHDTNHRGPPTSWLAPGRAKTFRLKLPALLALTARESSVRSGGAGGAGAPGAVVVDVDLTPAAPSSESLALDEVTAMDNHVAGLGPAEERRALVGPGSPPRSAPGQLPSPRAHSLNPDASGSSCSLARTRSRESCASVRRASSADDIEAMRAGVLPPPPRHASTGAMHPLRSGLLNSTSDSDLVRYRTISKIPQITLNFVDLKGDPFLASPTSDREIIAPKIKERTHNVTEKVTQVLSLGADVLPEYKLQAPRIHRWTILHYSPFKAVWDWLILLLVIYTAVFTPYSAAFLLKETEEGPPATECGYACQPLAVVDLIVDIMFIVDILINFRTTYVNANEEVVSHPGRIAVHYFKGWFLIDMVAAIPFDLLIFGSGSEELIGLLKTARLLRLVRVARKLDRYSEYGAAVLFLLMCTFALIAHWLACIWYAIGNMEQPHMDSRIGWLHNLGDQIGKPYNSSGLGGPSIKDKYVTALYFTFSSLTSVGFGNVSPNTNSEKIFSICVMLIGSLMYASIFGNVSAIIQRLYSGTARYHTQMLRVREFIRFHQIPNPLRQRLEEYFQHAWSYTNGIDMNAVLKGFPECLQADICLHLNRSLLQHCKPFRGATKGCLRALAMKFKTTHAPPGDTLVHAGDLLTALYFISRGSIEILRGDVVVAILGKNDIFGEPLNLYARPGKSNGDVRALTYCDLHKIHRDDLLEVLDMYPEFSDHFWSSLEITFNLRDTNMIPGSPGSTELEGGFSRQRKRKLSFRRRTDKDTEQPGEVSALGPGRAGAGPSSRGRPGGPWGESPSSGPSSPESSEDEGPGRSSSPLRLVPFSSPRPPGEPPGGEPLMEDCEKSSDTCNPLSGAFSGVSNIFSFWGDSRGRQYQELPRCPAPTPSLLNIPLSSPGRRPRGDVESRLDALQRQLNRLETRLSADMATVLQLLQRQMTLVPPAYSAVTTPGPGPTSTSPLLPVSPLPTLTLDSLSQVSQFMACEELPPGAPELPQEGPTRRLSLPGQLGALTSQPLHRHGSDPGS

The test concerns the target human ether-à-go-go-related gene (hERG) potassium channel (human, UniProt Q12809). In words: primary screen, population patch clamp on CHO cells stably expressing hERG.
As for `O=C(CN1C(=O)COc2ccccc21)N1CCCc2ccccc21`, the “hERG current change (%, negative = inhibition) at 10uM” value is reported as -7.54%. In the case of `CCCCCCC(CC(=O)NCc1cccnc1)CC(=O)NCc1cccnc1`, the “hERG current change (%, negative = inhibition) at 10uM” value is recorded as -3.91%. Consider `COc1ccc(/C=C/C(=O)NC(=S)NN2CCCCC2c2cccnc2)cc1` (centres unmarked), for which the “hERG current change (%, negative = inhibition) at 10uM” value is listed as -26.9%. As to `CCOC(=O)N1CCN(C(=O)C(=O)c2cn(CC(=O)N3CCCCCC3)c3ccccc23)CC1`, the “hERG current change (%, negative = inhibition) at 10uM” value is on record as -12.9%. The same measure for `Cc1ccc(C(=O)NCC(=O)OCC(=O)N2CCCc3ccccc32)cc1`: -22.6%. Take `O=C(Cn1[nH]c(=O)c2ccccc2c1=O)N1CCN(S(=O)(=O)c2ccc(Cl)cc2)CC1`: the “hERG current change (%, negative = inhibition) at 10uM” value was -8.89%.

As for `COc1ccc(CN(Cc2ccc(OC)cc2)S(=O)(=O)c2ccc(-n3cnnn3)c(C)c2)cc1`, the “hERG current change (%, negative = inhibition) at 10uM” value is reported as -2.08%. In the case of `CCOC(=O)c1sc(NC(=O)CSc2ncccn2)nc1C`, the “hERG current change (%, negative = inhibition) at 10uM” value is reported as -6.81%. For `COc1ccc(NC(=O)C2CCN(S(=O)(=O)c3c(C)noc3C)CC2)cc1` the value was 17.3%; for `CCOC(=O)c1ccccc1NC1c2ccccc2C(=O)N1C1CCN(C(=O)OCC)CC1` (centres unmarked), -56.4%. Consider `CCOc1ccccc1/C=N/Nc1nc(C)cc(=O)[nH]1`, for which the “hERG current change (%, negative = inhibition) at 10uM” value is reported as 0.476%.

As to `CCn1c(C)c(C(C)=O)c(N2CCCCC2)nc1=S`, the “hERG current change (%, negative = inhibition) at 10uM” value amounted to 7.31%. With `CC1CCCCN1CCCNC(=O)Cn1c(=O)c2cccn2c2ccccc21` (centres unmarked), the “hERG current change (%, negative = inhibition) at 10uM” value is given as -1.36%. On to `CCOc1ccc(NC(=O)CCCN2C(=S)NC(C)(C)CC2C)cc1` (centres unmarked), for which the “hERG current change (%, negative = inhibition) at 10uM” value is recorded as -1.74%. For `O=C1c2ccccc2C2(c3ccccc3)N1CCN2C(=O)C(Cl)(Cl)Cl` (centres unmarked) the value was 12.4%. For the molecule `O=C(NC1CCCc2ccccc21)c1ccccc1` (centres unmarked), the “hERG current change (%, negative = inhibition) at 10uM” value was found to be 3.92%.

Regarding `O=C(Cn1c(-c2ccccn2)nc2ccccc21)N/N=C/c1cccnc1`, the “hERG current change (%, negative = inhibition) at 10uM” value was -20%. Take `CN1CCN(S(=O)(=O)c2ccc(-c3ccc(Cl)cc3)cc2)CC1`: the “hERG current change (%, negative = inhibition) at 10uM” value is reported as -1.17%.

Turning to `N#CC1=C(N)Oc2c(c(=O)oc3ccccc23)C1c1ccccc1OC(=O)c1cccs1` (centres unmarked), the “hERG current change (%, negative = inhibition) at 10uM” value is on record as 17.2%. `C=CCn1c(NC)cc(=O)n(C)c1=O`: the “hERG current change (%, negative = inhibition) at 10uM” value is 7.94%. For `O=C(Cn1c(=O)[nH]c2ccccc2c1=O)N1CCN(c2cccc(Cl)c2)CC1` the value was 15.7%; for `CCCn1c(O)c(N=Nc2ccc3ccccc3n2)c2ccccc21`, 15.5%; for `O=C1C(=O)N(c2nccs2)C(c2ccccc2F)/C1=C(\O)c1ccc2c(c1)OCCO2` (centres unmarked), 17.6%. For `COc1[nH]c2ccc(F)cc2c1C(=O)OCC1CCN(CCNS(C)(=O)=O)CC1.NS(=O)(=O)O` the value was -1.62%; for `Cc1cccc(C)c1N=Cc1c(C(F)(F)F)[nH][nH]c1=O`, 11.3%. In the case of `Clc1ccc(N2CC2c2ccncc2)cc1` (centres unmarked), the “hERG current change (%, negative = inhibition) at 10uM” value is -7.29%. Consider `COc1cc(/C=C(/C#N)C(=O)NC(C)c2ccccc2)cc(OC)c1O` (centres unmarked), for which the “hERG current change (%, negative = inhibition) at 10uM” value is -30.6%.

Consider `CC(=O)O.CN=C(N)NCCC[C@H](N)C(=O)O`, for which the “hERG current change (%, negative = inhibition) at 10uM” value was 23%. For `COc1cc(NC(=O)Nc2c(C)n(C)n(-c3ccccc3)c2=O)cc(OC)c1OC` the value was 12.3%.

For the molecule `CCO[C@H]1OC(C(N)=O)=C[C@@H](c2csc3ccccc23)[C@@H]1CCCO`, the “hERG current change (%, negative = inhibition) at 10uM” value is given as -22.6%. As to `Cc1ccc(COC(=O)c2ccc3ccccc3n2)cc1`, the “hERG current change (%, negative = inhibition) at 10uM” value is 6.04%. With `CCCCn1c(N)c(NCCC)c(=O)[nH]c1=O`, the “hERG current change (%, negative = inhibition) at 10uM” value is 8.61%. `CCN(CC)c1ccc(C(=O)NNC(=O)CN2C(=O)NC(C)(c3ccccc3)C2=O)cc1` (centres unmarked): the “hERG current change (%, negative = inhibition) at 10uM” value is on record as -0.93%. `Brc1ccc(CSc2nnc(-c3ccco3)o2)cc1`: the “hERG current change (%, negative = inhibition) at 10uM” value is reported as -1.05%. For `Cc1[nH]c(=O)c(S(=O)(=O)c2ccccc2)c(C)c1Cl`, the “hERG current change (%, negative = inhibition) at 10uM” value worked out at 17%. As to `COc1ccc(/C(C)=N/OCC(=O)N=Nc2c(O)[nH]c3ccccc23)cc1`, the “hERG current change (%, negative = inhibition) at 10uM” value is reported as -3.96%. Regarding `CC(=O)c1cccc(NC(=O)/C(=C\c2ccco2)NC(=O)c2ccco2)c1`, the “hERG current change (%, negative = inhibition) at 10uM” value is -64.3%. For the molecule `COc1ccc([N+](=O)[O-])cc1NCC(=O)Nc1cc(S(=O)(=O)N2CCCCC2)ccc1C`, the “hERG current change (%, negative = inhibition) at 10uM” value stood at 2.05%. Consider `N#C/C(=C\c1ccc(F)cc1)c1nc(-c2ccco2)cs1`, for which the “hERG current change (%, negative = inhibition) at 10uM” value turned out to be 18.5%. `Cc1ccc(Nc2nc(-c3sc(NC(=O)c4cccc(Cl)c4)nc3C)cs2)cc1`: the “hERG current change (%, negative = inhibition) at 10uM” value is given as 6.36%.

As for `CSc1nc(C)c(C(=O)C[n+]2ccc(C)cc2)cc1C#N.[Br-]`, the “hERG current change (%, negative = inhibition) at 10uM” value is given as -44.4%.

In the case of `CN(Cc1ccccc1)c1nc(CN2CCOCC2)nc2scc(-c3ccccc3)c12`, the “hERG current change (%, negative = inhibition) at 10uM” value is reported as -24.9%. For `O=C(O)c1cccc(Cn2c(Cl)c(/C=N/NC(=O)c3ccco3)sc2=O)c1`, the “hERG current change (%, negative = inhibition) at 10uM” value turned out to be 38.3%.

`Cc1ccccc1-n1c(=O)cc(NCc2ccc3c(c2)OCO3)[nH]c1=O`: the “hERG current change (%, negative = inhibition) at 10uM” value is -6.43%.

Regarding `COc1ccccc1CNC(=O)/C=C/c1ccc(S(=O)(=O)NCc2ccco2)cc1`, the “hERG current change (%, negative = inhibition) at 10uM” value is on record as -21%. For `Cc1cnc(NC(=O)CN2CCCCC2)s1.[O-][Cl+3]([O-])([O-])O` the value was 14.6%; for `O=C(NCc1nc2ccccc2[nH]1)C1=C[C@H](c2ccc3c(c2)OCO3)C[C@H](OCCCCO)O1`, -37.2%. For `N#Cc1ccsc1NC(=O)CN1CCN(S(=O)(=O)c2ccccc2C(F)(F)F)CC1` the value was -56.9%. The same measure for `O=C(NCC(c1cccnc1)N1CCN(c2ccccc2F)CC1)c1cccc(Cl)c1` (centres unmarked): -47.2%; for `c1ccc(COCCC2CO2)cc1` (centres unmarked): 5.49%. As to `O=C(Nc1ccon1)C(Sc1ccccc1)c1ccccc1` (centres unmarked), the “hERG current change (%, negative = inhibition) at 10uM” value is -8.32%. For `O=C(/C=C/c1ccccc1)c1ccc2c(c1)OCO2`, the “hERG current change (%, negative = inhibition) at 10uM” value is recorded as -5.68%.

Regarding `COC(=O)c1ccc(NC(=S)NCC2CC2)cc1`, the “hERG current change (%, negative = inhibition) at 10uM” value is 17.4%. As to `CCN1CCN(C(=O)/C=C/c2ccc([N+](=O)[O-])cc2)CC1`, the “hERG current change (%, negative = inhibition) at 10uM” value is recorded as -64.2%.

Take `COCc1nnc(NC(=O)c2c(-c3c(Cl)cccc3Cl)noc2C)s1`: the “hERG current change (%, negative = inhibition) at 10uM” value is on record as 10.5%. As to `COc1cc(C(=O)OCC(C)=O)c([N+](=O)[O-])cc1OC`, the “hERG current change (%, negative = inhibition) at 10uM” value is recorded as 16.1%.
